Several values for one entry are separate records, joined by “and”; a condition that tells them apart may be missing. Equal entries are not always repeated. The whole screen tested about 420,000 compounds, of which about 64,000 (15%) were called active. The shares of active, inactive and inconclusive entries below differ from those in the screen. Calls follow the shape of the dose curve; as a rule, active = well fitted inhibition curve with a large enough effect; inconclusive = small, poorly fitted or top-dose-only effect; inactive = flat fitted curve, though single readings scatter. Where the call is inconclusive, the potency comes from a doubtful curve fit.
Test: qHTS for Inhibitors of human tyrosyl-DNA phosphodiesterase 1 (TDP1): qHTS in cells in absence of CPT; also: nearly all actives have a fitted effect of over 55% in size
Settings: DT40 Tdp1-/- hTDP1 cells, no CPT, ATP luminescence, 48 h; series mostly up to 46.2 µM
Summary of the method: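 A cellular qHTS used chicken DT40 cells lacking endogenous Tdp1 but carrying stably transfected human TDP1. Compounds were applied without camptothecin, and cell growth kinetics were judged by ATP-dependent luminescence after ≥48 hr.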
Potency is read from the fitted curve at half-maximal effect; tags tell the direction and shape of the fitted curve.

Row | SMILES | Potency
1 | COc1cccc2c1CCC1CC(=O)CC[C@@]21C (some centres not stated) | inconclusive: 8.2 µM [inhibitor, partial curve]
2 | CCc1ccccc1-n1nnnc1SCC(=O)Nc1ccc(N2CCN(C)CC2)cc1 | inconclusive: 29.1 µM [inhibitor, single point]
3 | CCn1ccnc1CN(C)C(=O)CCc1nnc(CCC2CCCCC2)o1 | inconclusive: 29.1 µM [inhibitor, single point]
4 | CC(=O)N1C[C@H]2CON(C)[C@H]2C[C@H]1c1ccc(-c2ccc(C#N)cc2)cc1 | inconclusive: 11.6 µM [inhibitor, single point]
5 | COc1ccc(OC)c(CNS(=O)(=O)c2ccc(-c3cc(C(F)(F)F)on3)s2)c1 | active: 8.2 µM
6 | CCCCN1C[C@H](COC(=O)CCC)Oc2cccc(F)c2S1(=O)=O | inactive
7 | CC(=O)CCc1ccc(OCC(=O)Nc2cccc(S(=O)(=O)N(C)c3ccccc3)c2)cc1 | inconclusive: 16.4 µM [inhibitor, partial curve, poor fit]
8 | O=C(NCCN1C(=O)S/C(=C\c2ccccc2)C1=O)C1CCN(S(=O)(=O)c2cccs2)CC1 | active: 18.4 µM
9 | CC(=O)Nc1ccc2c(CN3C(=O)NC(C)(c4ccc(C)cc4)C3=O)cc(=O)oc2c1 (configuration not stated) | inconclusive: 29.1 µM [inhibitor, single point]
10 | O=C(N/C(=C/c1ccc(Br)cc1)C(=O)N1CCOCC1)c1cccs1 | inconclusive: 18.4 µM [inhibitor, single point]
11 | O=C(NCCC1=CCCCC1)c1ccc2c(c1)N(Cc1ccccc1)C(=O)c1ccccc1S2(=O)=O | inconclusive: 14.6 µM [inhibitor, partial curve, poor fit]
12 | CCNC(=O)C1CCCN(C(=O)c2ccc(OC)cc2OC)CC1 (configuration not stated) | inactive
13 | CCCOc1ccc(-c2nnn(CC(=O)c3ccc4c(c3)OCCO4)n2)cc1 | inactive
14 | CCOC(=O)c1noc2ncn(CC(=O)O)c(=O)c12 | inconclusive: 18.4 µM [inhibitor, single point]
15 | COc1cccc(C(=O)N/N=c2/oc3ccccc3cc2C(N)=O)c1 | inactive
16 | CC[C@@]12C(=O)N(c3cccc(Br)c3)C(=O)N1[C@H](c1ccc(Cl)cc1)[C@@H]1C(=O)N(C3CCCCC3)C(=O)[C@@H]12 | inconclusive: 16.4 µM [inhibitor, single point]
17 | CC(C)[C@H]1COCCS(=O)(=O)N1Cc1ccc(Cl)cc1 | inconclusive: 35.5 µM [inhibitor, single point] and inconclusive: 29.1 µM [inhibitor, single point]
18 | O=C(c1ccc(Cl)c(S(=O)(=O)N2CCOCC2)c1)N1CCCCCC1 | inactive
19 | COc1ccc(NC(=O)C(c2cccc3ccccc23)n2c(=O)c(-c3ccco3)nc3ccccc32)cc1 (configuration not stated) | inactive
20 | CCC(CO)NCc1ccc(-c2ccccc2)cc1 (configuration not stated) | inconclusive: 18.4 µM [inhibitor, single point]
21 | Cc1nn(-c2ccc(Cl)cc2)c(Cl)c1/C=N/NC(=O)c1ccc(NS(=O)(=O)c2cccs2)cc1 | active: 18.4 µM

Row | SMILES | Potency
22 | Cc1cccc(-c2cc3nc(C)cc(C)n3n2)c1 | inconclusive: 20.6 µM [inhibitor, single point]
23 | CCCN1CCC(=O)N([C@H](CSc2ccc(Br)cc2)Cc2ccccc2)CC1 | inconclusive: 20.6 µM [inhibitor, single point]
24 | CN(C(=O)c1cc2c(=O)n3ccccc3nc2n1C)C1CCCCC1 | inconclusive: 18.4 µM [inhibitor, single point]
25 | Cc1cc(-c2cc(-c3ccc(Cl)cc3)nc(N)c2C#N)co1 | active: 20.6 µM
26 | Cc1ccc(S(=O)(=O)N2CCc3cc4c(cc3C2C)OCCCO4)cc1 (configuration not stated) | inconclusive: 18.4 µM [inhibitor, single point]
27 | CCOC(=O)Nc1ccc2c(c1)Cc1cc([N+](=O)[O-])ccc1-2 | inconclusive: 20.6 µM [inhibitor, single point]
28 | CCN(Cc1ccncc1)C(=O)c1ccc(C)c(S(=O)(=O)N2CCCCC2)c1 | inconclusive: 18.4 µM [inhibitor, partial curve]
29 | COc1ccc(C(=O)COC(=O)CCCC(=O)NC2CCCCC2)cc1 | inactive
30 | Cc1ccc(N2CCN(C(=O)c3nn(C)c4c3CSc3ccccc3-4)CC2C)cc1 (configuration not stated) | inconclusive: 29.1 µM [inhibitor, single point]
31 | CC1CCC(C(=O)NC(C(=O)Nc2ccccn2)C(C)C)CC1 (configuration not stated) | inconclusive: 16.4 µM [inhibitor, single point]
32 | COCCNC(=O)CSc1nc(-c2ccccc2)c(-c2ccccc2)o1 | inconclusive: 22.4 µM [inhibitor, single point]
33 | Cc1ccc2[nH]cc(CCNC(=O)Nc3ccccc3)c2c1 | inconclusive: 35.5 µM [inhibitor, single point]
34 | O=C(NNC(=O)c1ccc(Br)cc1)c1ccncc1 | inactive
35 | COc1ccc(NS(=O)(=O)c2cccc(C(=O)NN=C(C)c3ccco3)c2)cc1 | inconclusive: 29.1 µM [inhibitor, single point]
36 | Cc1cc(=O)oc(C)c1C(=O)N1CCN(c2ccc(F)cc2)CC1 | inactive
37 | CC(=O)c1cnn(-c2nc3c(C)cccc3s2)c1C | inconclusive: 29.1 µM [inhibitor, single point]
38 | CC1=C(C(=O)Nc2cccc(C)c2C)C(c2cccs2)NC(=S)N1 (configuration not stated) | inconclusive: 32.6 µM [inhibitor, partial curve, poor fit]
39 | O=C(NC1CCCC1)c1ccc2c(c1)N(Cc1ccc(F)cc1)C(=O)c1ccccc1S2 | inconclusive: 16.4 µM [inhibitor, partial curve]
40 | Cc1nn(-c2ccccc2)c(C)c1C(=O)N1CCN(S(=O)(=O)c2ccccc2)CC1 | inconclusive: 18.4 µM [inhibitor, single point]
41 | O=C(NCc1cccc(Cl)c1)C1CCC(=O)N(CCCN2CCCC2=O)C1 (configuration not stated) | inactive
42 | Cc1cccc(C)c1NC(=O)CN1CCN(C(=O)CNC(=O)Cc2cccc3ccccc23)CC1 | active: 14.6 µM
